Laboratory results reported in publication PMC6212790.
Some of the results follow. At the low end of the ranking the order means little.

target: T1, GST-Rok-C97-191 (UniProt O34857); assay: protein binding microarray; conditions: Rok is a gene silencer of Bacillus subtilis; high values mean tight binding; most listed sequences are background and not binding sites; double strand, one strand shown;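 note: rank score from −0.5 (least bound) to 0.5 (best bound)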
T1 sequence: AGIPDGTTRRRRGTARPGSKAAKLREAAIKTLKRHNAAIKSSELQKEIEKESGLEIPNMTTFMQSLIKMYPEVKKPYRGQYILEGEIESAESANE

How did the binding signal turn out when AGTCGGTC was run?
The binding signal was -0.135 E-score.

With ACCGCTGC as the sequence, how does the binding signal read?
The binding signal was -0.32 E-score.

With CTGAAACC as the sequence, how does the binding signal read?
Its binding signal is 0.000604 E-score.

Which binding signal does the source give for CGCCGTCC here?
The binding signal was -0.134 E-score.

With AGTTTAGA as the sequence, how does the binding signal read?
The binding signal was 0.184 E-score.

CGAGACTA was tested. Which binding signal did it give?
The binding signal was 0.186 E-score.

GCTACAAC was tested. Which binding signal did it give?
Its binding signal is 0.131 E-score.

Which binding signal does the source give for GCCTGTAA here?
Its binding signal is 0.00953 E-score.

For CACAAGTA, which binding signal is on record?
Its binding signal is 0.205 E-score.

With TCACCTGA as the sequence, how does the binding signal read?
Its binding signal is 0.0254 E-score.

With TACGCGTA as the sequence, how does the binding signal read?
The binding signal was 0.238 E-score.

Which binding signal does the source give for CTGCTCAC here?
Its binding signal is -0.147 E-score.

For ACTCCCAC, which binding signal is on record?
Its binding signal is -0.15 E-score.

Which binding signal does the source give for ACTATCGG here?
Its binding signal is 0.065 E-score.

With CAAACCCC as the sequence, how does the binding signal read?
Its binding signal is -0.303 E-score.

How did the binding signal turn out when CTAATTGA was run?
The binding signal was 0.15 E-score.

For ATTCGACG, which binding signal is on record?
Its binding signal is 0.193 E-score.

CAGAACAG was tested. Which binding signal did it give?
Its binding signal is -0.048 E-score.

For ACATTCGG, which binding signal is on record?
Its binding signal is 0.0217 E-score.

How did the binding signal turn out when GCTGACTA was run?
Its binding signal is 0.189 E-score.

For GAAGGCGC, which binding signal is on record?
Its binding signal is -0.208 E-score.

For CGTTGCCC, which binding signal is on record?
Its binding signal is -0.248 E-score.

For ATAAGCTA, which binding signal is on record?
The binding signal was 0.261 E-score.

For CTCTTAAG, which binding signal is on record?
The binding signal was -0.23 E-score.

How did the binding signal turn out when CATTTGGG was run?
Its binding signal is -0.0148 E-score.

For GACATACC, which binding signal is on record?
The binding signal was 0.0094 E-score.

How did the binding signal turn out when CTTTAGTC was run?
The binding signal was -0.102 E-score.

How did the binding signal turn out when AGAAATAA was run?
The binding signal was 0.316 E-score.

AGTGATGC was tested. Which binding signal did it give?
The binding signal was -0.0675 E-score.

With GGCACGTA as the sequence, how does the binding signal read?
The binding signal was -0.00215 E-score.

How did the binding signal turn out when CAGCAAGG was run?
Its binding signal is -0.207 E-score.

With ACTTGTCT as the sequence, how does the binding signal read?
The binding signal was -0.0197 E-score.

How did the binding signal turn out when GCGGGTAC was run?
Its binding signal is -0.172 E-score.

Which binding signal does the source give for AATCTTTG here?
The binding signal was 0.00627 E-score.

How did the binding signal turn out when TGCGCACA was run?
The binding signal was -8.28e-05 E-score.

For CGGACGAC, which binding signal is on record?
The binding signal was -0.141 E-score.

AGCTGGCC was tested. Which binding signal did it give?
The binding signal was -0.0688 E-score.

For ATGTGGCA, which binding signal is on record?
Its binding signal is -0.105 E-score.

GCGTGGAC was tested. Which binding signal did it give?
Its binding signal is -0.32 E-score.

With CAAGCTCG as the sequence, how does the binding signal read?
Its binding signal is -0.179 E-score.

Which binding signal does the source give for GAACCCTA here?
Its binding signal is 0.0074 E-score.

CCGACCAA was tested. Which binding signal did it give?
The binding signal was -0.101 E-score.

CCTTAACG was tested. Which binding signal did it give?
The binding signal was -0.152 E-score.

With GGGGATCA as the sequence, how does the binding signal read?
The binding signal was -0.173 E-score.

For CTTTTGGC, which binding signal is on record?
The binding signal was -0.159 E-score.

Which binding signal does the source give for AACGAGAC here?
Its binding signal is 0.0597 E-score.

AGAAGCCA was tested. Which binding signal did it give?
The binding signal was -0.0931 E-score.

Which binding signal does the source give for CAAAAGAA here?
The binding signal was -0.13 E-score.

For GATTGATA, which binding signal is on record?
The binding signal was 0.233 E-score.

With ACGCGGAG as the sequence, how does the binding signal read?
The binding signal was -0.0772 E-score.

With CGCATTGC as the sequence, how does the binding signal read?
Its binding signal is -0.0256 E-score.

Which binding signal does the source give for CGTACTCA here?
Its binding signal is -0.00471 E-score.

With CTCGTCGA as the sequence, how does the binding signal read?
Its binding signal is -0.125 E-score.

AGAGCCTG was tested. Which binding signal did it give?
The binding signal was -0.0987 E-score.

How did the binding signal turn out when AGTTGCGG was run?
Its binding signal is -0.0107 E-score.

CCTGTCAG was tested. Which binding signal did it give?
Its binding signal is -0.131 E-score.

For CGTACAGC, which binding signal is on record?
Its binding signal is -0.156 E-score.

Which binding signal does the source give for ACTGTTCG here?
Its binding signal is 0.0167 E-score.

CCCTGCCA was tested. Which binding signal did it give?
The binding signal was -0.324 E-score.

Which binding signal does the source give for ACATGGGA here?
The binding signal was 0.0667 E-score.

How did the binding signal turn out when CAACCGTG was run?
Its binding signal is -0.0369 E-score.

GCGGCATA was tested. Which binding signal did it give?
The binding signal was -0.0162 E-score.

For AAGATGCA, which binding signal is on record?
Its binding signal is -0.109 E-score.

For AGGGGGGC, which binding signal is on record?
The binding signal was -0.424 E-score.

Which binding signal does the source give for ATTGTATG here?
Its binding signal is 0.217 E-score.

With CGTATTTC as the sequence, how does the binding signal read?
The binding signal was 0.115 E-score.

AACCTAGC was tested. Which binding signal did it give?
The binding signal was -0.107 E-score.

For CAGCATAA, which binding signal is on record?
The binding signal was 0.0581 E-score.

How did the binding signal turn out when ACAGCCCT was run?
The binding signal was -0.0912 E-score.

ATGCGGAG was tested. Which binding signal did it give?
Its binding signal is -0.314 E-score.

How did the binding signal turn out when ACAAAGGC was run?
Its binding signal is -0.173 E-score.

For ACCTGTCG, which binding signal is on record?
The binding signal was -0.0938 E-score.

Which binding signal does the source give for CAGGGCCA here?
The binding signal was -0.145 E-score.

How did the binding signal turn out when CGCCGAAA was run?
The binding signal was -0.0722 E-score.

Which binding signal does the source give for ATACCAGC here?
The binding signal was 0.165 E-score.

How did the binding signal turn out when ACCAAGCG was run?
The binding signal was -0.238 E-score.

For CTTAGTTC, which binding signal is on record?
Its binding signal is 0.142 E-score.

How did the binding signal turn out when GAGATGGC was run?
Its binding signal is -0.172 E-score.

For GCCCCGCA, which binding signal is on record?
Its binding signal is -0.21 E-score.

How did the binding signal turn out when AACAATTG was run?
Its binding signal is 0.168 E-score.

ATAGTTAC was tested. Which binding signal did it give?
Its binding signal is 0.254 E-score.

For GTTCGAAA, which binding signal is on record?
The binding signal was -0.0791 E-score.

GCAACTGA was tested. Which binding signal did it give?
Its binding signal is -0.153 E-score.

With CGGAAAAG as the sequence, how does the binding signal read?
Its binding signal is 0.000626 E-score.

TAGGATCA was tested. Which binding signal did it give?
Its binding signal is 0.0651 E-score.

Which binding signal does the source give for CTTAAGAC here?
The binding signal was -0.104 E-score.

CCCCAGGC was tested. Which binding signal did it give?
Its binding signal is -0.216 E-score.

For TTATAAAA, which binding signal is on record?
Its binding signal is 0.218 E-score.

How did the binding signal turn out when CGGCAACG was run?
Its binding signal is -0.127 E-score.

TGTTAGAA was tested. Which binding signal did it give?
Its binding signal is 0.14 E-score.

With GCAGTGGA as the sequence, how does the binding signal read?
The binding signal was -0.265 E-score.

CTTGCCGC was tested. Which binding signal did it give?
The binding signal was -0.0699 E-score.

How did the binding signal turn out when CTCCCGGA was run?
The binding signal was -0.187 E-score.

For TGAAGCAA, which binding signal is on record?
The binding signal was -0.158 E-score.

With TAGAAGGA as the sequence, how does the binding signal read?
The binding signal was 0.153 E-score.

Which binding signal does the source give for CAAATATC here?
Its binding signal is 0.231 E-score.

For ACGACGGA, which binding signal is on record?
The binding signal was -0.00652 E-score.

Which binding signal does the source give for CGAGGCGA here?
Its binding signal is -0.0794 E-score.

AACATGAA was tested. Which binding signal did it give?
The binding signal was 0.091 E-score.

Which binding signal does the source give for TAAGTCCA here?
Its binding signal is 0.0886 E-score.

For TATTAATA, which binding signal is on record?
Its binding signal is 0.352 E-score.

Which binding signal does the source give for CCTAGAAA here?
Its binding signal is 0.16 E-score.

For CTTTAAAA, which binding signal is on record?
The binding signal was 0.0338 E-score.

Which binding signal does the source give for CCGGTTAG here?
Its binding signal is -0.0479 E-score.

For GTAACACA, which binding signal is on record?
The binding signal was 0.138 E-score.

How did the binding signal turn out when TAGGGATA was run?
The binding signal was 0.114 E-score.

Which binding signal does the source give for ACGGCCTC here?
Its binding signal is -0.152 E-score.

Which binding signal does the source give for CCCGACGC here?
The binding signal was -0.213 E-score.

For GTTCAATA, which binding signal is on record?
The binding signal was 0.198 E-score.
